# B1: tau^4R ([…], C322A), monomeric (domain or fragment)
# chain: not shown
# B2: preformed tau^4R fibrils (other)
# chain: not shown
# B3: tau^4R P301S mutant (domain or fragment)
# chain: not shown
# B4: tau^4R P301L mutant (domain or fragment)
# chain: not shown
# Legend:
# [1] = target: DNAJB1 (residues 154-341) (UniProt P25685 part only); test: NMR titration
# full-length DNAJB1 [2] = target: T1, full-length DNAJB1 (UniProt P25685 1-340); test: NMR titration
# DNAJA2-AF488 = DNAJA2-AF488 (UniProt O60884 1-412, AF488 (site not stated)); test: fluorescence polarisation
# DNAJB1 G194C-AF488 = DNAJB1 G194C-AF488 (UniProt P25685 1-340, G194C, AF488 on G194C); test: fluorescence polarisation
# full-length DNAJB1 [3] = target: T1, full-length DNAJB1; test: co-sedimentation
# DNAJA2 = DNAJA2 (UniProt O60884 1-412); test: NMR titration
# full-length DNAJB1 [4] = target: T1, full-length DNAJB1; test: NMR titration; remark: listed apart in the source
binder,measurement,setting,value
B1,binding result,[1],binds
same,binding result,full-length DNAJB1 [2],binds
B2,Kd,DNAJA2-AF488,7.6 µM
same,Kd,DNAJB1 G194C-AF488,1.7 µM
same,binding result,full-length DNAJB1 [3],binds
B3,binding result,DNAJA2,binds
same,binding result,full-length DNAJB1 [4],binds
B4,binding result,DNAJA2,binds
same,binding result,full-length DNAJB1 [4],binds
